Results are given in words; binding and its absence hold for the method and conditions named. In cells and extracts the contact can be indirect. Some binding calls cover weakened binding; strength is not graded here. Tags and fused reporters may be left off the sequences shown.
Columns and labels:
Test in all cases: co-IP; lysates of differentiated Neuro2a cells expressing GFP-JIP1 constructs or GFP alone, immunoprecipitated with anti-GFP antibody, western blot of endogenous kinesin-1 (KHC), JNK and JIP3; 4 C, 150 mM NaCl, 20 mM Hepes pH 7.5, 0.5% Triton X-100
GFP-JIP1-F642V (mouse) = molecular target: T1, GFP-JIP1-F642V (mouse) (UniProt Q9WVI9)
T1 sequence: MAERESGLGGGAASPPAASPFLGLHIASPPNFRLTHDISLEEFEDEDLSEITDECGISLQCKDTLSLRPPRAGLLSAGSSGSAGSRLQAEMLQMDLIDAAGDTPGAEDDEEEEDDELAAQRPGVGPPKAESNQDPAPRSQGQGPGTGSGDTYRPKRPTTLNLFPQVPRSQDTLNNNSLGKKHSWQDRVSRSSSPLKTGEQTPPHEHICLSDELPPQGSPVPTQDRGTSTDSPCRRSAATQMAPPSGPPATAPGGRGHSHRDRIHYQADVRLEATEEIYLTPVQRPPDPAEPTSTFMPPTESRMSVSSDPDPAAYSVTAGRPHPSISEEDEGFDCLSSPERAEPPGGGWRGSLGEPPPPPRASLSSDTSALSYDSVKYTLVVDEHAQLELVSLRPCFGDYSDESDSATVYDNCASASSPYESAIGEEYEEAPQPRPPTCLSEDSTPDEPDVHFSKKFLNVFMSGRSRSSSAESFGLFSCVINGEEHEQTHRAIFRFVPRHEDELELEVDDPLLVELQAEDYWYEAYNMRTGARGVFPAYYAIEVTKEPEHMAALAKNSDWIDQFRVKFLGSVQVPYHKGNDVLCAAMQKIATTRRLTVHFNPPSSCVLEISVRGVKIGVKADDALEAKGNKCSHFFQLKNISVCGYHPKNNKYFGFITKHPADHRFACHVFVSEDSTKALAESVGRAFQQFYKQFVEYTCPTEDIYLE

GFP-JIP1-V581A (mouse) = molecular target: T2, GFP-JIP1-V581A (mouse) (UniProt Q9WVI9)
T2 sequence: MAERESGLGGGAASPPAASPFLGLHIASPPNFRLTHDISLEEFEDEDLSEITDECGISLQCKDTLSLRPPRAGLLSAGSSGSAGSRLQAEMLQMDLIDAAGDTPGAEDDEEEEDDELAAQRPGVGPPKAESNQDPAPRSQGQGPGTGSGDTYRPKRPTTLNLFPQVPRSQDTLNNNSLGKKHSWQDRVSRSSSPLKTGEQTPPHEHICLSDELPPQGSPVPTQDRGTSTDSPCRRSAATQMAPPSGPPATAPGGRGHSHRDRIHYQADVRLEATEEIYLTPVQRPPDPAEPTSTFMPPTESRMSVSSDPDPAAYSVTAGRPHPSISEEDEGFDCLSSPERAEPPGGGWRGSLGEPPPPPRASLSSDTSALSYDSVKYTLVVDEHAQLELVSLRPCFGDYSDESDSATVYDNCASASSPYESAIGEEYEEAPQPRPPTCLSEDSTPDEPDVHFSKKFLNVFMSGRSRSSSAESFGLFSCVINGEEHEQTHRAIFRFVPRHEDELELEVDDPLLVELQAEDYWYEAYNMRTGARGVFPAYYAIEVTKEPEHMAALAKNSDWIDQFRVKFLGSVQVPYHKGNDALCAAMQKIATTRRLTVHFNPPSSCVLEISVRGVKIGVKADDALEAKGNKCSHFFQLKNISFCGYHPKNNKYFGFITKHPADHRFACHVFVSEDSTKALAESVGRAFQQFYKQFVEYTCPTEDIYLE

GFP-JIP1-dCT (mouse) = molecular target: T3, GFP-JIP1-dCT (mouse) (UniProt Q9WVI9)
T3 sequence: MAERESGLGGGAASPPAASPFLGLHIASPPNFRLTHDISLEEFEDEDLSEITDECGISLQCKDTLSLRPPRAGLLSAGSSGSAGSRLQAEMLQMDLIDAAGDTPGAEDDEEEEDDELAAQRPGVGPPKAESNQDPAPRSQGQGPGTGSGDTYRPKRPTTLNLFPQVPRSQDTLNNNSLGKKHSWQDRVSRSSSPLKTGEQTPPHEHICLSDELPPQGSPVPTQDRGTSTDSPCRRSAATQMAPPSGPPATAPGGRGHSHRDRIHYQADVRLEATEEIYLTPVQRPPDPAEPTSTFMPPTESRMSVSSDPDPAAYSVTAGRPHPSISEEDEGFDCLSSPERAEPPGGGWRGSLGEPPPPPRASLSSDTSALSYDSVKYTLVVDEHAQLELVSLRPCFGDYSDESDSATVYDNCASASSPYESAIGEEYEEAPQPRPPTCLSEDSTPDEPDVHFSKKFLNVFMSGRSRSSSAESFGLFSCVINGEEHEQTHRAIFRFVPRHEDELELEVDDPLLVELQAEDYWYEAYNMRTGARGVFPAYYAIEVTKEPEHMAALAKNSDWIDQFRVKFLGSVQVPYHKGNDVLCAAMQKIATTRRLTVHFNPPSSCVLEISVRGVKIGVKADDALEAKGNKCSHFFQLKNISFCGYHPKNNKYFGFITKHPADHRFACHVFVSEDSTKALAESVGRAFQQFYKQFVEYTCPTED

binding (GFP-JIP1-F642V (mouse)): no binding | binding (GFP-JIP1-V581A (mouse)): no binding | binding (GFP-JIP1-dCT (mouse)): binds
B1: JIP3 (endogenous, Neuro2a) (protein, UniProt Q9ESN9 1-1337)
chain: MMEIQMDEGGGVVVYQDDYCSGSVMSERVSGLAGSIYREFERLIHCYDEEVVKELMPLVVNVLENLDSVLSENQEHEVELELLREDNEQLLTQYEREKALRKQAEEKFIEFEDALEQEKKELQIQVEHYEFQTRQLELKAKNYADQISRLEERESEMKKEYNALHQRHTEMIQTYVEHIERSKMQQVGGSGQTESSLPGRSRKERPTSLNVFPLADGMVRAQMGGKLVPAGDHWHLSDLGQLQSSSSYQCPNDEMSESGQSSAAATPSTTGTKSNTPTSSVPSAAVTPLNESLQPLGDYVSVTKNNKQAREKRNSRNMEVQVTQEMRNVSIGMGSSDEWSDVQDIIDSTPELDVCPETRLERTGSSPTQGIVNKAFGINTDSLYHELSTAGSEVIGDVDEGADLLGEFSVRDDFFGMGKEVGNLLLENSQLLETKNALNVVKNDLIAKVDQLSGEQEVLKGELEAAKQAKVKLENRIKELEEELKRVKSEAVTARREPREEVEDVSSYLCTELDKIPMAQRRRFTRVEMARVLMERNQYKERLMELQEAVRWTEMIRASREHPSVQEKKKSTIWQFFSRLFSSSSSPPPAKRSYPSVNIHYKSPTAAGFSQRRSHALCQISAGSRPLEFFPDDDCTSSARREQKREQYRQVREHVRNDDGRLQACGWSLPAKYKQLSPNGGQEDTRMKNVPVPVYCRPLVEKDPSTKLWCAAGVNLSGWKPHEEDSSNGPKPVPGRDPLTCDREGEGEPKSTHPSPEKKKAKETPEADATSSRVWILTSTLTTSKVVIIDANQPGTIVDQFTVCNAHVLCISSIPAASDSDYPPGEMFLDSDVNPEDSGADGVLAGITLVGCATRCNVPRSNCSSRGDTPVLDKGQGDVATTANGKVNPSQSTEEATEATEVPDPGPSESEATTVRPGPLTEHVFTDPAPTPSSSTQPASENGSESNGTIVQPQVEPSGELSTTTSSAAPTMWLGAQNGWLYVHSAVANWKKCLHSIKLKDSVLSLVHVKGRVLVALADGTLAIFHRGEDGQWDLSNYHLMDLGHPHHSIRCMAVVNDRVWCGYKNKVHVIQPKTMQIEKSFDAHPRRESQVRQLAWIGDGVWVSIRLDSTLRLYHAHTHQHLQDVDIEPYVSKMLGTGKLGFSFVRITALLIAGNRLWVGTGNGVVISIPLTETVVLHRGQLLGLRANKTSPTSGEGTRPGGIIHVYGDDSSDKAASSFIPYCSMAQAQLCFHGHRDAVKFFVSVPGNVLATLNGSVLDSPSEGPGPAAPAADAEGQKLKNALVLSGGEGYIDFRIGDGEDDETEECAGDVNQTKPSLSKAERSHIIVWQVSYTPE

— PMC3599065
